According to PubChem BioAssay AID2546 (National Center for Advancing Translational Sciences (NCATS), 2010):
The whole screen tested about 310,000 compounds, of which about 11,000 (3.5%) were called active. Roughly 8% stayed inconclusive and do not appear here. Calls come from the whole dose curve; as a rule, active = well fitted inhibition curve with a large enough effect; inconclusive = small, poorly fitted or top-dose-only effect, or effect the other way; inactive = flat fitted curve, though single readings scatter. The entries are a selection whose mix differs from that of the whole data set.

assay: VP16 counterscreen qHTS for inhibitors of ROR gamma transcriptional activity; conditions: Drosophila S2 Gal4-VP16 UAS-luciferase, luminescence, 20 h; series mostly up to 53.6 µM; activity, negative = inhibition: at the top concentration;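 note: Gal4-VP16 expression switched on by copper sulfate through the metallothionein promoter; nearly all actives have a fitted effect of over 50% in size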
% is set by controls: 0 for no effect and ±100 for the full control effect; potency is the fitted concentration of half-maximal effect.

Row | Compound | Potency | activity, negative = inhibition
1 | O=C(N/N=C/c1cc([N+](=O)[O-])ccc1O)c1ccc2c(c1)OCCO2 | active: 1.41 µM | –
2 | CC[C@H]1OC(=O)[C@H](C)[C@@H](O[C@H]2C[C@@](C)(OC)[C@@H](O)[C@H](C)O2)[C@H](C)[C@@H](O[C@@H]2O[C@H](C)C[C@H](N(C)C)[C@H]2O)[C@](C)(O)C[C@@H](C)C(=NOCOCCOC)[C@H](C)[C@@H](O)[C@]1(C)O | – | inactive: -6.55%
3 | CCc1cc2c(nc1CC)CCN(CC/C(C)=N/O[C@@H](C)c1cc(-c3c(C)cc(C)cc3C)no1)C2 | – | inactive: -16.8% [at 10 µM]
4 | COC(=O)/C(=C1/Oc2ccc(C(C)(C)C)cc2S1)C(F)(F)F | – | inactive: -14.9%
5 | FC(F)Oc1ccc(NC(=S)NC23CC4CC(CC(C4)C2)C3)cc1 | active: 7.08 µM | –
6 | COc1ccc(C(=O)CC(=O)C(=O)Nc2c(C)cccc2C)cc1 | active: 5.62 µM | –
7 | CC1(C)SC2C(NC(=O)COc3ccccc3)C(=O)N2C1C(=O)O (configuration not stated) | inactive | –
8 | Nc1ccccc1C(=O)/C=C\c1ccc2c(c1)OCO2 | – | inactive: -1.35% [at 10 µM]
9 | CC[C@@H]1CC=C[C@H]2[C@H]1C(=O)N(Cc1ccccc1)[C@H]2c1ccc2ccccc2c1 | – | inactive: -0.713%
10 | Cc1ccc(S(=O)(=O)NC(=O)NC(C)Cc2ccccc2)cc1 (configuration not stated) | – | inactive: -9.48%
11 | C[C@@]12C(=O)OC(=O)[C@@]1(C)[C@@H]1CC[C@@H]2O1 | – | inactive: 8.71%
12 | O=C(Nc1ccccc1)C1=C[C@H](c2ccc(Br)cc2)C[C@H](OCc2ccc(CO)cc2)O1 | – | inactive: 1.58%
13 | COc1ccccc1-c1cc(C(=O)N/N=C/c2ccc(C)s2)c2ccccc2n1 | active: 4.47 µM | –
14 | Cc1nc2sccn2c(=O)c1CCN1CCC(=C(c2ccc(F)cc2)c2ccc(F)cc2)CC1 | inactive | –
15 | CC(=O)N1[C@H](Cc2ccccc2)C=C[C@]1(C)C(=O)NCCN1CCOCC1 | – | inactive: 9.05%
16 | CCn1c(SCC(=O)c2ccc(C)cc2)nnc1-c1ccoc1C | active: 15.8 µM | –
17 | C[C@@H](C(=O)Nc1ccc2ccccc2c1)[C@@H]1C[C@@]1(C)[C@@H](NC(=O)c1cccnc1)c1ccccc1 | – | inactive: -15.7%
18 | COc1ccccc1/C=C/C=N/n1c(-c2ccc(Cl)cc2Cl)n[nH]c1=S | – | inactive: -3.77%
19 | COc1cccc(C(=O)Oc2c(Br)cc(Br)cc2/C=N/NC(=O)c2cc(C)[nH]n2)c1 | active: 22.4 µM | –
20 | Nc1ccc(C(=O)O)c(O)c1 | inactive | –
21 | O=C1/C(=C/c2cccnc2)Sc2ccccc21 | – | inactive: 13.7%

Row | Compound | Potency | activity, negative = inhibition
22 | O=C(C1=C[C@H](C2CCCCC2)C[C@H](OCc2ccc(CO)cc2)O1)N1CCN(Cc2ccccc2)CC1 | – | inactive: -17.8%
23 | O=C(Cc1ccccc1)NC(=S)Nc1ccc2oc(-c3ccccc3)nc2c1 | active: 7.08 µM | –
24 | CC(/C=C/c1ccco1)=N\NC(=O)COc1ccc(C)c(C)c1 | active: 8.91 µM | –
25 | COc1ccc(-c2n[nH]c(=S)n2Cc2ccccc2)cc1 | active: 7.08 µM | –
26 | COc1cc2nc(N3CCN(C(=O)[C@@H]4COc5ccccc5O4)CC3)nc(N)c2cc1OC | – | inactive: -8.38% [at 17 µM]
27 | CCOC(=O)N1CC=C2C(C#N)=C(N)C(C#N)(C#N)[C@H](c3cccs3)[C@H]2C1 | – | inactive: 1.75%
28 | Cc1ccc(S(=O)(=O)NCCC(=O)Nc2ccc(Cl)c(Cl)c2)cc1C | active: 11.2 µM | –
29 | CC(C)(C)CN1C(N)=NC[C@@H]1Cc1ccc(O)cc1 | – | inactive: 4.55%
30 | Cc1ccc(C(=O)N/C(=C/c2ccc(-c3cccc([N+](=O)[O-])c3)o2)C(=O)NC(C)(C)C)cc1 | – | inactive: -18.3%
31 | CC(C)(C)c1ccc(-n2ncc3c2CCCC3NC(=O)C2(C(N)=O)CC2)cc1 (configuration not stated) | active: 2.51 µM | –
32 | COc1ccc2c(c1)O[C@H](c1ccc3c(c1)OCO3)[C@@H](OC(=O)N[C@H](C)C1CCCCC1)C2=O | – | inactive: -2%
33 | Cc1nn(-c2cccc(Cl)c2)c(Cl)c1/C=N/NC(=O)c1cccs1 | active: 12.6 µM | –
34 | CC(/C=N/NC(=O)CSc1nc(C)cc(C)n1)=C\c1ccccc1 | – | inactive: 2.15%
35 | Cc1nn(Cc2n[nH]c(=S)n2Cc2ccccc2)c(C)c1Cl | active: 20 µM | –
36 | CC[C@@H]1CC=C[C@H]2[C@H]1C(=O)N(Cc1ccccc1)[C@H]2c1ccc(OC)c(Cl)c1 | – | inactive: 7.63%
37 | C=C1c2cccc(O)c2C(O)=C2C(=O)[C@]3(O)C(O)=C(C(N)=O)C(=O)[C@@H](N(C)C)[C@@H]3[C@@H](O)[C@H]12 | – | inactive: -4.97%
38 | COc1ccc(SC[C@H](CC(C)C)N2CCN(CCc3ccccc3)CCC2=O)cc1 | – | inactive: 18%
39 | COc1ccc2ccc3c(c2c1)N=CC1(O3)N(C)c2ccccc2C1(C)C (configuration not stated) | – | inactive: 10.8%
40 | CN1CCN(CCC=C2c3ccccc3Sc3ccc(S(=O)(=O)N(C)C)cc32)CC1 | – | inactive: -29.1%
41 | COc1ccc(C2/C=C\CN(C(=O)c3ccc(C)cc3)CC(=O)N2Cc2ccc(F)cc2)cc1 (configuration not stated) | – | inactive: -9.25%
42 | CC(=O)/C=C(/C)NC(Cc1c[nH]c2ccccc12)C(=O)O (configuration not stated) | – | inactive: -3.6%

Row | Compound | Potency | activity, negative = inhibition
43 | CC1(C)CC2CC(C)(CN2C(=S)NC(=O)c2ccccc2Cl)C1 (configuration not stated) | active: 1 µM | –
44 | CCOc1ccc(N/C(C)=C/C(=O)c2ccc3c(c2)OCCO3)cc1 | – | inactive: 0.187%
45 | Oc1cccc(-c2nc3ccccc3s2)c1 | active: 10 µM | –
46 | COc1ccc(-c2cc(=O)c3cc(C)ccc3[nH]2)cc1 | – | inactive: -13.3% [at 96.6 µM]
47 | C=C(CC1([C@@H](NP(=O)(c2ccccc2)c2ccccc2)[C@H]2C[C@@H]2CCCC)CC1)c1ccccc1 | – | inactive: -18.6%
48 | CC(C)c1ccc2c(c1)CCC1C(C)(CN)CCCC21C (configuration not stated) | – | inactive: 3.02%
49 | Nc1nonc1-n1nnc(C(=O)N/N=C/c2cccs2)c1CSc1ccccc1 | active: 5.01 µM | –
50 | COc1cc2c(cc1NC(=O)COC(=O)C1CC(=O)N(Cc3ccco3)C1)oc1ccccc12 (configuration not stated) | active: 7.94 µM | –
51 | CCOC(=O)C1CCN(CC(=O)Nc2c(C(=O)OC)[nH]c3ccc(Cl)cc23)CC1 | active: 10 µM | –
52 | N#C/C(=C\c1ccc([N+](=O)[O-])o1)c1nc2ccccc2[nH]1 | active: 1.58 µM | –
53 | COc1cc2c(c(OC)c1OC)-c1c(cc(OC)c(OC)c1OC)C[C@H](C)[C@H](C)C2 | – | inactive: -12.3%
54 | CCN(CC)C(=O)/C(=C\c1ccc2c(c1)OCO2)NC(=O)c1ccc(Br)cc1 | – | inactive: -3.06%
55 | CCc1cc2c(nc1CC)CCN(CC/C(C)=N/OC[C@H]1O[C@H](c3ccccc3)C=C[C@@H]1Oc1ccc(OC)cc1)C2 | – | inactive: -0.952% [at 10 µM]
56 | NC1=NC(=O)/C(=C\c2cccs2)S1 | – | inactive: -2.13% [at 0.365 µM]
57 | C[C@H]1CCC[C@]2(O[C@@H](CCO)C[C@H](O)[C@H]2O)O1 | – | inactive: -6.98%
58 | CC[C@]1([C@H]2O[C@@H]([C@@H]3O[C@](O)(CO)[C@@H](C)C[C@H]3C)C[C@H]2C)CC[C@@H]([C@]2(C)CC[C@@]3(C[C@@H](O)[C@@H](C)[C@@H]([C@H](C)[C@H](OC)[C@H](C)C(=O)O)O3)O2)O1 | – | inactive: -16.1% [at 17 µM]
59 | CCC(=O)NC(c1ccc(C)cc1)c1cc([N+](=O)[O-])c2cccnc2c1O (configuration not stated) | active: 2.82 µM | –
60 | Nc1c(-c2ccccc2)cnc2c(-c3ccccc3)cnn12 | active: 7.08 µM | –
61 | CC1(COc2ccc(C[C@H]3SC(=O)NC3=O)cc2)CCCCC1 | – | inactive: -21.1%
62 | O=Nc1c(-c2ccccc2)[nH]n(-c2ccccc2)c1=O | active: 15.8 µM | –
